In the supplement of paper PMC10126150:
Sequences with one replicate were seen in a single cluster, so their values are uncertain.

Test system: ATP
Test: switch fluorescence ratio, 500 uM ATP over buffer (Cy3 cluster intensity, sum of 5 cycles each) (fold (ratio)); higher = stronger signal-on switching upon ATP binding; sequences stand for … in TCGTCGGCAGCGTCAGATGTGTATAAGAGACAGTTTTTTTTTTTTTTTTTTTTTTTTT…TC
Conditions: aptamer strand: ATP DNA aptamer (quencher-CACCTGGGGGAGTATTGCGGAGGAAGG + anchor), 100 nM annealed; ATP concentration: 500 uM; one replicate
Method in brief: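 Per cluster, summed Cy3 intensity from the target cycles was divided by that from the buffer cycles to give the fluorescence ratio, then averaged per switch-domain sequence. Clusters outside 100-1000 RFU were excluded. The Cy3-labelled switching-strand clusters, on a modified Illumina MiSeq flow-cell, were annealed to 100 nM quencher-labelled ATP aptamer and imaged in selection buffer, then after 15 min with 500 uM ATP at 22 °C, for five cycles with NaOH stripping and re-annealing between them.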
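Note: ATP exposure 15 min at 22 °C before imaging.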

Sequence	switch fluorescence ratio
AAAGATCGG	1.02
GTCGAGGGTA	1.04
TGCTGTTCGT	1.02
ACGACCAAAT	1.29
GATTCTACTC	1.02
TCTTTTGTAG	0.998
GTTGGAGCGG	0.972
CCTCTATGCT	1.97
ATCGCTAGTC	1.06
AGCGGAGGCT	0.91
ATATGTTAGG	0.995
GCTTTAGA	1.01
ATGCGTCGGT	1
AATAACTGAT	0.999
ACTCCTGGAT	1.11
AACTGACTTT	1.06
TGGCGTTAAT	1.01
CGGTAAGGAG	1
ACGTCAAGGA	1.14
GATTGAGGAT	0.957
CATGTGCTAT	1.1
GGACTGGACA	1
TGAAGTTGTG	0.98
GACCGATAGA	1
ACAAATTTAC	1.1
CGGGTACCG	0.99

Sequence	switch fluorescence ratio
ATCATTGCG	0.992
GCCTGGGGTA	1.01
TGAATTGCGG	1
TATTGAGGTT	1.06
AAGAGTTACA	1.02
GTAATAGCTC	1.1
AAGAAAGGG	0.973
GGCTTTGCTT	0.979
GAGTATCTGG	0.977
AACACGGGGG	1
GGCGCTTTTA	0.965
GCGCGCCGGT	1.01
ATGATCCTGA	1.06
GATTAAAAGA	1.16
TTCAGGGTA	0.975
AGAAGCGAAG	1.01
TCGGTATTCA	0.995
ACACGTATCG	1.09
CGACACCTGG	1.51
CAGATTAGCG	0.955
GCGCTGAAGA	1.02
TCAAGAAATG	1.51
TCCGACATAA	5.84
AAGTAAAACC	1.04
CGTCTACGGT	1
CTCTTCAGCG	1.02

Sequence	switch fluorescence ratio
TGCGGCAACG	0.976
CTTCCCGACT	1.24
AGTCCCCATG	1.21
ACTGCGTG	0.973
AATGTTTAAT	1
TCCGACCGGA	1.25
CGGCCTAGGA	1.01
TCCGGCGGGT	1.07
TACACATGCA	1.11
TCGGTTAGCA	1.01
GCGGAGGCTC	0.982
ATGGTAC	1.24
GTCCTGACAT	1.03
CTTTTATTTG	0.979
CATGCGTATG	1.03
CGGCACTTGG	1.06
GGTACCTGAT	1.2
GTCATACTGC	1.06
GTGTTACTGG	1.03
ATGACCTGGA	1.12
ATTGGCACGA	1.02
AGATATTCGT	1
CCGGTGTGGC	1.08
AGTGGCCTAA	0.986
TTGACACTAT	1.07
AATCATTGTG	1.07

Sequence	switch fluorescence ratio
CGAGTGTGAT	0.993
ACAGATTGGG	0.98
ACCAGTCCCC	1.03
CGTGCATTTG	1.07
CCAGTTTCG	1.02
AGCTCTTTTA	1.01
CATTTGGAG	1.02
ACGGCGTCGG	1
CAATATTTCG	1.02
CCGTAGTCGT	1.44
GCAAGAATGT	1.01
AGCAGGGTGC	1.02
AACTAGAGCT	0.984
CGTATTTTCT	0.976
GTACAAAGCT	0.986
GAAATGGCGC	1.06
TGATGAGTTC	1.01
TGCGCTGCTG	0.969
ATAATCGACA	1.01
TTCGGTCTAC	1.28
GAGTCCCCCA	0.998
CTAGAGAGCA	1.02
AGGCGAATGG	0.991
TTATTCTTAT	1.03
CCGCACCCAA	3.08
TAAGCAAAGC	0.996

Sequence	switch fluorescence ratio
GTTAGTTTAC	1.01
ACATTGCGCT	0.999
TACTTGGATG	0.959
AGATTGCGCC	1.02
TTTGGTGAAA	0.974
TCAACTGGCT	1.02
AACTGTGCCT	1.08
CGTTGGCGTA	0.938
AGCTAATGAG	1.02
CGGTTCAATG	0.996
ATCTAACTTC	0.991
GGAGGCAATA	1.34
CTAGTAGCGA	1.43
GCAGGGGTAA	0.985
GACAGGGCTT	0.992
TTGTGGCTCA	0.953
ATTAAATGCC	1.03
AATAGTCGCG	1.02
GCCATCTGTT	1.02
AGGGTGGAGA	1.01
GATCTGTGGC	0.95
GGTGATGAGC	1.04
CGGAGGTAAT	1.49
ACCGTGCTGT	1.03
AGATGACCAT	0.975
AAGTCTACTG	1.03

Sequence	switch fluorescence ratio
GGTGTCGCAC	0.997
AACTCTTGAT	0.968
TTCGATGGTA	0.972
ATCAGGCGCG	1.01
GGCGACTGG	0.974
TATCGGAATT	1.01
TCACGATATA	0.968
GGTCGATCA	0.955
GTTCTCAGA	0.982
GCGACAGAGG	1.01
ACGGTGGGCA	1.03
CAGCTTACCC	1.26
ATACAATTAT	1.03
TATCTCAGGC	1.03
CATTAATGTT	0.97
CCGATCGTAG	3.99
GGCTTAGCGA	1.02
CAAGATCTT	1.02
GCTTTAGAGT	1.02
GGTCACGACA	1.05
AGAATGC	1.03
TCTAATTCCA	0.941
AATGCCGAGA	0.955
GTCGGCTAGT	0.952
CTGGACGGAC	1.17
TAGCACGG	0.985

Sequence	switch fluorescence ratio
CGGAGGTTGT	1.02
ATAAGAATAG	1.04
CAGGATTGAA	0.989
CTAACAGACA	1.01
ATCAAATGAG	0.991
CGTAATGTCA	0.986
CCGGTGACCA	1.01
TTCGTCCGAC	2.37
TGGTATATGA	0.969
AGTCAACGAC	0.995
ACATGGGACC	1.07
AGCCGGGACA	1.02
ACGAATTGAG	0.986
AGGGCCTACC	0.973
CTTTGCCCTC	0.961
CAGTTATATT	1.02
GGATCCTACA	0.984
CGGGCGGGA	1.02
TAGACTCATT	0.973
AGCCTAGGC	0.977
CCGTATTAAA	1
AATGAGTAT	1.01
AGCCGCACTA	2.56
CAACATTATA	1.02
TACTCGCGTA	1.1
TGTCTACTAG	1.04

Sequence	switch fluorescence ratio
ATCGGCGTTT	0.997
CTATGTAGGG	1
CTATGTGTGT	0.97
CGGGGCGGT	1
AGGGCATCGT	1.04
AATCAATAAA	1
TATCTGAAGC	0.954
GTTAATGTAG	0.975
CTCCTTGAGA	0.971
TAAAGAATT	1
TAGGGGTAG	0.984
TGGTGACATT	1.02
CTCTGAAT	1.05
ATACCGTCAA	1.3
GCGCAGTTAT	1.07
GAATCGTCAT	0.951
CTTAGCAACG	1.01
CAGGCTCGCC	0.984
TAAAAGCTTC	1.28
